PubChem BioAssay AID504333 (National Center for Advancing Translational Sciences (NCATS), 2011)
Hit rate of the full screen: of about 360,000 compounds, about 16,000 (4.4%) were called active. Inconclusive results, whose numbers are uncertain, are shown with a selection of clear calls. Calls come from the whole dose curve; as a rule, active = well fitted inhibition curve with a large enough effect; inconclusive = small, poorly fitted or top-dose-only effect; inactive = no such curve, though single readings can be large or run the other way. A potency beside an inconclusive call is a rough fit, not a confirmed value.

biological target: Bromodomain adjacent to zinc finger domain protein 2B (Homo sapiens) (UniProt Q9UIF8); assay: qHTS Assay for Inhibitors of BAZ2B; conditions: AlphaScreen BAZ2B-H3K14Ac peptide displacement; activity change, negative = inhibition: at 114 µM (top of the series) unless noted; note: nearly all actives have a fitted effect of over 60% in size
Chain of UniProt Q9UIF8 (Q9UIF8 whole entry, looked up, the tested form may be a part): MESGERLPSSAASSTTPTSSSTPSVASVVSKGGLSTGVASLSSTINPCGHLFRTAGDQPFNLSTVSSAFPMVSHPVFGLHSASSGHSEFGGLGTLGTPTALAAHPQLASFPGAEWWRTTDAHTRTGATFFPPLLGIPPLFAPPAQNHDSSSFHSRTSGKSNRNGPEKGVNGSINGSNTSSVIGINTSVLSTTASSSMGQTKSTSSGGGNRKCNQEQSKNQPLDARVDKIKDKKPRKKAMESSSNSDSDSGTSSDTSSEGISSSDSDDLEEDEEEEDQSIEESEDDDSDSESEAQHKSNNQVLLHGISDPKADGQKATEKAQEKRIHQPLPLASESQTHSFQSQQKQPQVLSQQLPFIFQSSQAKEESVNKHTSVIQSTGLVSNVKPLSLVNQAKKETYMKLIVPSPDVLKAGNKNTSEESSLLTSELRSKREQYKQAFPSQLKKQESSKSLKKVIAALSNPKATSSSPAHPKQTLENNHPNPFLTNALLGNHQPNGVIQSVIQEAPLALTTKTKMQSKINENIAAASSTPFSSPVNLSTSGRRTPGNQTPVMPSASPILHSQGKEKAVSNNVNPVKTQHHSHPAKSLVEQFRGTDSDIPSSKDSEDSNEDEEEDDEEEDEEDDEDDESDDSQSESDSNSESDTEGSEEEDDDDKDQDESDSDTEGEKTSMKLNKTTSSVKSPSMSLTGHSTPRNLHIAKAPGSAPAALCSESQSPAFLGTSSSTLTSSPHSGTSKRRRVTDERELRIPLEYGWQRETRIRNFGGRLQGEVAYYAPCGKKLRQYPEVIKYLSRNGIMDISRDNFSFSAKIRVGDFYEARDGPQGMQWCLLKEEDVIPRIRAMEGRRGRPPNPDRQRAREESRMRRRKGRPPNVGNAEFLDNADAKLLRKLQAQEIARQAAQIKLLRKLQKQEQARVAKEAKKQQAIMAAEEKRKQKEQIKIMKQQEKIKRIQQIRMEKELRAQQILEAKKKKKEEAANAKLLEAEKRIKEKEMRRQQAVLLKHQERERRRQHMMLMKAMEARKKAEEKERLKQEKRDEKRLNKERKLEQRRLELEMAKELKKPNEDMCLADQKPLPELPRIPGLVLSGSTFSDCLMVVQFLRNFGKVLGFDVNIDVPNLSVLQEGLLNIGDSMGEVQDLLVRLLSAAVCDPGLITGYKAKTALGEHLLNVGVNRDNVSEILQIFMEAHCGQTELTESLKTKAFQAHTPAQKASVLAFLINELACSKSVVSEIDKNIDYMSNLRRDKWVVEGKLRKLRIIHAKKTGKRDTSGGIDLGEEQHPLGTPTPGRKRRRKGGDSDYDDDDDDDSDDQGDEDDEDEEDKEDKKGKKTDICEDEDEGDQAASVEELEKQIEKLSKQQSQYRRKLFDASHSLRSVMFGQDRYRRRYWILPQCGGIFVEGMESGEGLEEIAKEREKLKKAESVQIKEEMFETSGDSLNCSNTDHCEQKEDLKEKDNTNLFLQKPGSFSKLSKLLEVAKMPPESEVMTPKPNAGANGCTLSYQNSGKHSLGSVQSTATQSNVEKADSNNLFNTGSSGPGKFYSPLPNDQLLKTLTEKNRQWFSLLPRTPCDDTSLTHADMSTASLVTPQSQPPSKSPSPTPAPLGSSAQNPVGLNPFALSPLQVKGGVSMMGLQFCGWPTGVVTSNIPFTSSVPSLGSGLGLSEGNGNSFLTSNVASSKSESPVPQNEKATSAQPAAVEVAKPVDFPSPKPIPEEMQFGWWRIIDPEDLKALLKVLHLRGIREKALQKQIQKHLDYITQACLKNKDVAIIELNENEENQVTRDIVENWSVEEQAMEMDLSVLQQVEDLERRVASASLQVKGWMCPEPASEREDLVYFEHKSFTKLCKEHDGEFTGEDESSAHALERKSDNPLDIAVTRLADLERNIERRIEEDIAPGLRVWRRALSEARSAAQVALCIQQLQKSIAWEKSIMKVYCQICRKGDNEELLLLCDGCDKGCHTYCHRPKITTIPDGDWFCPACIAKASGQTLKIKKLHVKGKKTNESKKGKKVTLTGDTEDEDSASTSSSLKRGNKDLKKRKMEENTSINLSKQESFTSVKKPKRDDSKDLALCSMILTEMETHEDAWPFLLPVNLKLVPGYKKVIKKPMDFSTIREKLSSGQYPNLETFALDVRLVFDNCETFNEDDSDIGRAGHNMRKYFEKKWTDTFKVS
Excerpt: BAZ2B (bromodomain adjacent to zinc finger domain, 2B) belongs to a family of ubiquitously expressed bromodomain containing proteins, which biological function has not yet been elucidated. […] The interaction of BAZ2B with ISWI mediated by the BAZ1 motif has recently been described. […] The protocol is based on the AlphaScreen (PerkinElmer) displacement assay developed by NCGC [5], but uses the peptide ligand Biot-H3K14Ac, a high affinity binding partner for BAZ2B, in an AlphaScreen format. Although AlphaScreen has significant advantages with its utility in a variety of epigenetic target assays, the primary screening data provided in this deposition should be used with caution due to the prevalence of screening artifacts. The top compound concentration tested was 110uM in this assay, which increases number of actives and potential artifacts. An AlphaScreen counterscreen is highly recommended to be run against any putative actives to eliminate non-specific artifacts. Alternatively, one can use other AlphaScreen assays in PubChem to filter out promiscuous hits. Eberharter, A. et al. ACF1 improves the effectiveness of nucleosome mobilization by ISWI through PHD-histone contacts. The EMBO journal 23, 4029-4039. 2004. PMID: 15457208 [2] Jones, M.H. et al. A novel family of bromodomain genes. Genomics 63, 40-45. 2000. PMID: 10662543 [3] Yasgar, et al. Compound Management for Quantitative High-Throughput Screening. JALA. 2008 Apr;13(2):79-89. PMID: 18496600 [4] Inglese, et al. Quantitative high-throughput screening: a titration-based approach that efficiently identifies biological activities in large chemical libraries. Proc Natl Acad Sci. 1;103(31):11473-8. 2006. PMID: 16864780 [5] Quinn et al. A chemiluminescence-based method for identification of histone lysine methyltransferase inhibitors. Mol Biosyst 6(5): 782-8. 2010. PMID: 20567762 [6] Baell,Holloway. New substructure filters for removal of pan assay interference compounds (PAINS) from screening libraries and for their exclusion in bioassays. J Med Chem. 53(7):2719-40. 2010. PMID: 20131845 NIH Molecular Libraries Probe Production Network [MLPCN] NIH Chemical Genomics Center [NCGC] Structural Genomics Consortium (SGC) NIH Grant: 5U54 MH084681-02
To each well of a 1,536w plate, 2ul of BAZ2B protein (final 50nM) and 1ul biotinylated histone peptide acetylated at Lys14 [b-H3(5-23)K14Ac] (final 50nM) were added in 1x PBS buffer, pH 7.4, containing 0.01% Tween-20, using a nanoliter dispenser. Formation of a protein-peptide complex proceeded at room temperature for 30 min. A Kalypsys pin-tool was employed to transfer 23 nL of library compound solution in DMSO to each well. Following a 30 min incubation of the protein-peptide complex with compounds at room temperature, a mixture of 40 ug/mL each streptavidin-coated donor and nickel chelate acceptor AlphaScreen beads (final 10 ug/mL) were added in a 1ul dispense for a final volume of 4ul. A brief centrifugation followed (1000rpm, 1 min) and were then incubated protected from the light for 20 min at room temperature. Plates were read on an EnVision multilabel plate reader using the 1,536 plate HTS AlphaScreen aperture (excitation time 80 ms, measurement time 240 ms).
% is set by controls: 0 for no effect and ±100 for the full control effect; potency is the fitted concentration of half-maximal effect; tags give direction and shape of the fitted curve.

Row | Compound | Potency | activity change, negative = inhibition
1 | Cc1[nH]c2ccc(C(=O)N3CCN(c4ccc(F)cc4)CC3)cc2c1C | active: 35.5 µM | –
2 | Cc1ccc(-c2ccc(NC(=O)C3C4C=CC(C4)C3C(=O)O)cc2)o1 (stereo not given) | inconclusive: 50.1 µM [inhibitor, partial curve] | –
3 | Cc1coc2c(C)c3oc(=O)c(CCC(=O)N(C)CC(=O)O)c(C)c3cc12 | inconclusive: 79.4 µM [inhibitor, single point] | –
4 | CC1CCN(C(=O)C2CCN(S(=O)(=O)c3cccc4cccnc34)CC2)CC1 | – | inactive: 0.51%
5 | COC(=O)c1cc(C)[nH]c2c(C)cc3nc4ccccc4c3c12 | – | inactive: 82%
6 | COc1ccc(/C=C2/C(=O)ON=C2c2ccccc2)cc1OC | inconclusive: 79.4 µM [inhibitor, single point] | –
7 | COc1cc(C2CC(=O)Oc3c2c(=O)n(C)c2ccccc32)cc(OC)c1OC (stereo not given) | active: 50.1 µM | –
8 | COc1cc2c(=O)n(CCc3ccccc3)c(=O)n(CC(=O)Nc3ccccc3)c2cc1OC | inconclusive: 89.1 µM [inhibitor, single point] | –
9 | O=C(COc1ccccc1[N+](=O)[O-])N(Cc1ccco1)c1ccccn1 | – | inactive: -24%
10 | COc1ccc(C)cc1NC(=O)N1CCCn2nc(C)cc21 | – | inactive: -0.823% [at 57.1 µM]
11 | Cc1ccc(C(=O)O)cc1N1C(=O)c2cccc3c([N+](=O)[O-])ccc(c23)C1=O | active: 50.1 µM | –
12 | Cc1ccc(OCC(=O)Nc2ccc3oc(=O)ccc3c2)cc1 | – | inactive: 9.65%
13 | c1ccc(-c2csc3ncnc(N4CCN(Cc5ccc6c(c5)OCO6)CC4)c23)cc1 | inconclusive: 39.8 µM [inhibitor, partial curve] | –
14 | Cc1cccn2cc(-c3ccc(F)cc3)cc12 | inconclusive: 79.4 µM [inhibitor, partial curve] | –
15 | CCCn1c(SCC(=O)N2N=C3/C(=C/c4ccc(OC)cc4)CCCC3C2c2ccc(OC)cc2)n[nH]c1=O (stereo not given) | inconclusive: 50.1 µM [inhibitor, partial curve] | –
16 | Cc1ccc(/C=C2/SC(=S)N(CCC(=O)NCCCN3CCOCC3)C2=O)cc1 | – | inactive: -37.2%
17 | COc1ccc(OC)c(NC(=O)c2cnn(-c3ccc(C)cc3)c2C2CCNCC2)c1 | inconclusive: 35.5 µM [inhibitor, single point] | –
18 | C/C(=C/c1oc2ccc(O)cc2c1[N+](=O)[O-])N(C)C | inconclusive: 70.8 µM [inhibitor, single point] | –
19 | COc1ccccc1C(=O)Nc1ccc2c(c1)CCCN2C(=O)c1cccs1 | inconclusive: 31.6 µM [inhibitor, full curve] | –
20 | COc1cc(NC(=O)c2cc(S(=O)(=O)N3CCc4ccccc43)cn2C)cc(OC)c1OC | inconclusive: 25.1 µM [inhibitor, full curve] | –
